The list shows a part of the results.
system: PF3D7_0420300 AP2 domain 1 (GST-tagged); experiment: gcPBM binding intensity (ln(normalized median fluorescence intensity)); higher = stronger DNA binding
Procedure, shortened: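 Probes on an Agilent 4 × 180k array were primer-extended, double-stranded and 36 bp long, taken from intergenic genomic regions, with negative controls added. GST-tagged P. falciparum DNA-binding domains from E. coli, about 25 μg on average, were applied to the array for 1 h in 1× PBS containing 1% milk, 0.2 mg/ml BSA, 0.5% salmon testes DNA and 0.03% Triton X-100. Binding intensity, obtained after Alexa488 anti-GST antibody detection and a 488 nm scan, is the highest Masliner-normalised natural-log median intensity across replicate spots of either probe orientation.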

| Sequence | gcPBM binding intensity (ln) |
| --- | --- |
| ATTAAATGCAGTTCGGTGCATTAAGGTTATGATGAA [GTGCAC_site9883] | 9.12 |
| ATTTATTCATTTGGGTGTACTATTTAAAAAAAACAA [XGTACX_site498] | 9.18 |
| TATTTATATTTTAACACACACATATTTATATTTATA [CACACA_site7324] | 9.61 |
| TATATTTTTTAAACCACACACAATATAGAGTATAAT [CACACA_site4510] | 9.66 |
| TATATATAATTTTATACATGCACATATTATATATAT [TGCATGCA_site1036] | 9.26 |
| TATAAATAAAGACACACACACATATAAATAAATATA [CACACA_site7155] | 10.1 |
| TTTATATACTATTCAAAGTGATAAATAATATATGAA [TGCATGCA_negctrl_site352] | 8.86 |
| AAAAAAAAAAAACATACACACAATAAAATAGGGGTA [CACACA_site2399] | 9.99 |
| ATTTATTTATTAAGATGTACTTATTAAAAATAATAA [XGTACX_site7392] | 8.76 |
| CCATTAAATACATACACACCCACACCCAAAAAAAAA [CACACA_site4633] | 9.81 |
| AAAAAAAAAAATATAACACACAAAAAATTGTATCGA [CACACA_site1144] | 9.44 |
| ATATAGTAAAATTATACACACATGAATTTTCCCATA [CACACA_site3113] | 9.44 |
| ACAAAATTTACAAAATGTACATATTGTAGATATTGT [XGTACX_site7618] | 9.06 |
| ATTATATATACACGCACACACACTTATATATATATA [CACACA_site9093] | 10 |
| CATTCATTTATTAATTGTACTTTTAAGGTTAAATAA [XGTACX_site5838] | 8.85 |
| TAAAAATATATACATACATGCATACATATATATGTA [TGCATGCA_site774] | 9.14 |
| CAAGCCCTTCTGCTTACACACAGTAATTATTGTGTA [CACACA_site2953] | 9.49 |
| TAGGAAAAGAAAAGCACACACATAAATAAATATATA [CACACA_site504] | 9.91 |
| TAATTTATTATATTTTGTACGTAAAATTATTATTGT [XGTACX_site8155] | 9.26 |

| Sequence | gcPBM binding intensity (ln) |
| --- | --- |
| AATATTTATTTTACATGTACTTATTTTTCTTTTAAC [XGTACX_site3631] | 9.52 |
| AATATATATTTATATTGTACATATATATATATTTCT [XGTACX_site2603] | 9.15 |
| TGTATTTAAAATGGTTGTACATAAATAAAAATAAAA [XGTACX_site7771] | 9.23 |
| ATTTATTTATTTATATGTACTTATATATGTATTTTC [XGTACX_site6269] | 9.45 |
| TATTGAAACGTATAGACACACATATGATATATATAT [CACACA_site3226] | 9.42 |
| AAAGTGTTAACCTAATCTTTAGTTTTTAAACAATAT [CACACA_negctrl_site841] | 8.98 |
| TTAATTAAATATTATACACACAAAAAAATAACTTTA [CACACA_site6197] | 9.47 |
| AAAAAAAAAAAACATACACACAAATATGTACATACA [CACACA_site7807] | 9.84 |
| TATATATTAATATATGCATGTACGATTATTATAATA [TGCATGCA_site446] | 9.18 |
| AATAAAAATCCACAAGCACACAAATGTACTTATATA [CACACA_site8783] | 9.35 |
| TAAATACAAAAATGTACACACATATAAATATTTTTA [CACACA_site7612] | 9.42 |
| TTTTTTTTTATATTTAGTACATATATATTATTATAT [XGTACX_site3334] | 9.28 |
| ACAAGATGATGGAAATGTACATAAAAAGAATCATAT [XGTACX_site8682] | 9.74 |
| AACACTACATAAAACTGTACAATAGTATTTTATTAT [XGTACX_site996] | 9.34 |
| ATTATTAAAATGATATGTACGCACATAATATACATA [XGTACX_site3236] | 9.23 |
| CTTAGTGTATTTGAATGTACGCATAAATATAATTAT [XGTACX_site2830] | 9.19 |
| ATAATATTTTGAAACGGTACACTTTTAAAATACACT [XGTACX_site4423] | 9.26 |
| AAAATAAGGAAAAAAAAAAAAAAAAAAAAAAAAAAG [CACACA_negctrl_site1291] | 8.95 |
| AAAAAAAAAAAAAATACACACATAAAATAAATAACA [CACACA_site439] | 9.81 |

| Sequence | gcPBM binding intensity (ln) |
| --- | --- |
| TTTGGTTATATTTAAAAAAGACTAATGAAAATTAAA [XGTACX_negctrl_site526] | 8.88 |
| ATATATATATATTACACACACACAAAAAAAATAAAG [CACACA_site118] | 10.4 |
| AATTTACAAATATAATGTACATAATTATATATATAT [XGTACX_site278] | 9.24 |
| AATAGTAAAAATCACTGTACGTTTATTTTTAAAATG [XGTACX_site1035] | 9.22 |
| CCATATACAACCATACGTACATATATATATATATAT [XGTACX_site8193] | 9.32 |
| CATACCATACATAAAACACACAAAATTTACAGAATA [CACACA_site7451] | 9.8 |
| TAGAAAAACATTACGTGTACCAAACATCCTAGCAAC [XGTACX_site4888] | 9.7 |
| ATATTATTTATAGGGTGTACCTTATTATTATAAGAA [XGTACX_site7148] | 8.94 |
| TATAATATTATACATAGTACACATCACACATCGCAA [XGTACX_site4650] | 9.57 |
| TATATACTTTTATGTACACACCTATAATATGGGTGA [CACACA_site5044] | 9.19 |
| TTATACATAAATTTTGTACACACAAAAAAAAAAAAG [CACACA_site8374] | 9.53 |
| TTTCAAAAGTAATACTGTACTTATTTTTATGATTTA [XGTACX_site4184] | 9.11 |
| GAATTTTTTTAATGTTGTACTTTTTTTTTTTTTTCT [XGTACX_site648] | 9.31 |
| ACATATATATATATATATATATATATATTACATTTA [CACACA_negctrl_site627] | 9.12 |
| TTTTTGTTAAACAGGGTGCTAATCTGAATTAATATT [GTGCAC_site9908] | 9.02 |
| ACATATTTTATTTTTTGTACACATATATTATTTTTT [XGTACX_site6528] | 9.73 |
| ATGTATTAAAAAAATTGTACTATAAAATGTAACCGC [XGTACX_site8083] | 9.49 |
| AAGGCAAGCACTTAAACATGCATATAATAATATCAT [TGCATGCA_site698] | 9.03 |

— the supplement of paper PMC11417369
